Experimental data as given in the supplement of paper PMC11417369.
This is one part of the list.

test system: PF3D7_0420300 AP2 domain 1 (GST-tagged); experiment: gcPBM binding intensity (ln(normalized median fluorescence intensity)); higher = stronger DNA binding
In short: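 The highest Masliner-normalised natural-log median intensity across replicate spots of either probe orientation is reported as binding intensity. GST-tagged P. falciparum DNA-binding domains expressed in E. coli were applied for 1 h to an Agilent 4 × 180k array of primer-extended double-stranded 36-bp intergenic genomic probes plus negative controls, and bound protein was detected with Alexa488 anti-GST antibody and scanned at 488 nm.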

| Sequence | gcPBM binding intensity (ln) |
| --- | --- |
| GAAATCTAATTTATTACACACATTTGAAAAAAATTC [CACACA_site6640] | 9.23 |
| ACCCATTTTTGTTGTTCTATATATTCGTGAATCATT [CACACA_negctrl_site614] | 9.53 |
| TTATATTTTTTTGAGTGTACTTTTTGTGTAAAATTC [XGTACX_site2155] | 9.09 |
| TTACTAAGAAGGATTTATTTTATAAAAATATTTATT [XGTACX_negctrl_site549] | 8.87 |
| AATTTTTTGAATAATTGTACATATTTGGTTAAATAT [XGTACX_site3612] | 9.16 |
| ATATTTTATACTTGCACACAAAATATATTAGAATGT [CACACA_site1985] | 9.41 |
| CATATTATTTATATTTGTACACAGCGATATGAAATA [XGTACX_site7717] | 9.29 |
| CTTACATAAAATATCACACACATAAAAAAACAATAT [CACACA_site1901] | 10.1 |
| TATATATATATATATGTGCACATATATATGATATTA | 9.11 |
| TTATATAAATATAAGGTGCTGGGGTTTATTACATAT [GTGCAC_site9909] | 9.53 |
| ATATCGCACGTTTGAAGTACATAAAAACGATTAATA [XGTACX_site7684] | 9.06 |
| CACCAATTCATATGCACACACATCTGCATATTATAG [CACACA_site6925] | 9.79 |
| ATCATTTTTATAAATTGTACAAATATTTTTTATACA [XGTACX_site7551] | 9.13 |
| ATTTCGTAATTTATATCACACACATATATATATAAT [CACACA_site9021] | 9.67 |
| ATATATGGGTAGTATACACACTGTATATTTAGGAAT [CACACA_site7357] | 9.46 |
| GTATGAAAAAAATATGCATGCTAAATAATAAATGTT [TGCATGCA_site352] | 9.34 |
| TATATATATATACATACATATAAAGTTACATAAACA [CACACA_negctrl_site432] | 9.25 |
| GAACAAACAAAGAAAGAACACACATACACAATATAC [CACACA_site8918] | 10.1 |
| TAGATTTTTTTACATTGTACATATTTTTTCTTATAG [XGTACX_site293] | 9.46 |
| TATAAAATATAAATTTGTACATATAAAATATTTTAT [XGTACX_site7462] | 9.02 |
| TTTTTTAAAATATAAAATATGTACAAATATGTTGAA [GTGCAC_negctrl_site379] | 8.91 |
| TAATAGTTATAAAATACACACCAGGCATGATAAATG [CACACA_site4335] | 9.5 |
| AATATTTTAAAAAAATGTACTTTTAACCCTTATTGG [XGTACX_site3490] | 8.91 |

| Sequence | gcPBM binding intensity (ln) |
| --- | --- |
| TACATATTTACTATCACACACACGATATATATAAAT [CACACA_site1242] | 9.93 |
| ATACGAAAAAATAGACGTACTATGAAATAATAATTT [XGTACX_site8387] | 9.27 |
| TACTTAAAAAAAAAAAAAATAAATATTATGTATTAT [CACACA_negctrl_site138] | 8.98 |
| TAATATTTTAATTGTGTGCACATTAATATTATAAAA | 9.17 |
| TTTAGTGAGTTTGTTGTGCACTGAAAAAATTACAAT | 9.1 |
| TATATTATTTTTTGTGGTACATGTATTTTTACCTAA [XGTACX_site4348] | 9.28 |
| ACATGTAAATTTACATGTACATGTAACACTTAATAT [XGTACX_site4575] | 9.39 |
| AAAACAAACGGACACACACACATATATATATATATA [CACACA_site5924] | 9.97 |
| ATGCATACACTTATATGTACACATTTACATATTATT [XGTACX_site2841] | 9.53 |
| CGAAAGGAAATATAACGTACATAAGATTATATTCAC [XGTACX_site3868] | 9.2 |
| AATAAATAAATATATTGTACATATATATATATATAT [XGTACX_site8627] | 9.11 |
| ATGAACAAGGGGCACACACACATTATGACTAATTTA [CACACA_site3204] | 9.95 |
| TATTAAAAGAAAAAAAAAAAAAAATTAATACATATA [XGTACX_negctrl_site582] | 9.07 |
| TATTAATATATAGTAGTGCAATAAAGATATACTGAA | 9.39 |
| AACATACTCACGAACATACACACGGACATACATACG [CACACA_site603] | 9.87 |
| GTACATTATATATATACACACATACATAATAAAGAA [CACACA_site5528] | 9.75 |
| ATATGCTATTAATTATGTACATATATATATATATAT [XGTACX_site4901] | 9.42 |
| GGACTATACAGTTATACACACACATATATATATAAT [CACACA_site7991] | 9.86 |
| ACTACGTGTCAAAAATATTAATTACAAATGAATAAA [GTGCAC_negctrl_site248] | 8.87 |
| AAATGTTAAAAAGAGAAAAACAATAAAAAACAATTA [CACACA_negctrl_site1044] | 9.4 |
| AGGTGTCATAGATGCACACAAAAGTAACACGCACCT [CACACA_site4418] | 9.44 |
| AAAAGGTTATCAAAATGTACGAAATGTTACAAAAAT [XGTACX_site6215] | 9.44 |
| CTTAATTTTTTTTAATGTACATACATATAAACCTTT [XGTACX_site2233] | 9.23 |

| Sequence | gcPBM binding intensity (ln) |
| --- | --- |
| AGTTATATGTACTACACACGTACACAAAATAAGATA [CACACA_site3719] | 9.57 |
| AAAATTAAAAATAACACACACATATTTATATTTATA [CACACA_site7329] | 9.75 |
| TATTCTTTTATGAATACACACATATACGAAAATATT [CACACA_site6585] | 9.36 |
| AAGGAGAAATATTGCACACGTGCAAAATGGTATGAG [CACACA_site259] | 9.48 |
| TGTAATATTTTTCATGCATGCTCTTCTTTTACATAA [TGCATGCA_site144] | 9.36 |
| ATAATTTATATTACTTGTACATATTTATATGAACGA [XGTACX_site3610] | 8.96 |
| TATATTAAACAATATACACACATTAATGTATCCATA [CACACA_site5523] | 9.45 |
| TTATATATATATATATGTACACATATATAACATGAT [XGTACX_site6643] | 9.21 |
| ATAACCTAATAATACACACACATGAATATAAATAAC [CACACA_site6584] | 10.2 |
| ATATATATTTTATACGCATGTAATTATTATGTGGTC [TGCATGCA_site45] | 9.29 |
| AAACAATTTGGGTGTACACATGATACGTTCGATGAG [CACACA_site5160] | 9.47 |
| ATATTATACATTTATACACACATAAAAAGACAAAAA [CACACA_site3565] | 9.75 |
| TTTTTTTTCAATGGCACACATTTTAGATTTATGCTT [CACACA_site4735] | 9.26 |
| CATAAATAATATATTTGTACGAATAAAATTTGTTCA [XGTACX_site3445] | 9.07 |
| TAAAACAATATAAAATGTACAGAATTTTTTTTTCTT [XGTACX_site6820] | 9.01 |
| ATAATGAAAAGAAAGGGTACAAAAAAAAAAAAAAAT [XGTACX_site3350] | 9.85 |
| TTCTTTTATGATAATTGTACCCTTTTTAAAAAGAAA [XGTACX_site7815] | 9.02 |
| AACTGATTATTTTTTTGTACATATATAATAATATAT [XGTACX_site5953] | 9.39 |
| TATGTATATACATAAACATGCAAAAACAATATCTTA [TGCATGCA_site950] | 9.19 |
| TATTTATTTATTTAATGTACAAAAGAACAAGAATTT [XGTACX_site2248] | 8.93 |
| TCTTAATCGTATTATTACTATAATTATATAATATTT [CACACA_negctrl_site1594] | 9.16 |
| TTCTTCTGTTTTATTACACACCATTTTGTGTATACA [CACACA_site7059] | 9.65 |
| ATATATATATTATATAGTACAGAGTATACTATTATA [XGTACX_site1893] | 9.19 |

| Sequence | gcPBM binding intensity (ln) |
| --- | --- |
| AACGATATATGTACTACACACATTATGTCATCCTAT [CACACA_site2464] | 9.74 |
| CAAAAAGGAATGTATGCACACAATTGATTTTAACTC [CACACA_site1468] | 9.46 |
| GATCTAAAAACAAGGTGTACAAGAAAAAAAAAAAAA [XGTACX_site7577] | 9.07 |
| ACAAAAGGGGAATACACACACATATATATATATATA [CACACA_site2215] | 9.74 |
| ACATGTGAATTTTAGGTGCACTTGTAATTTAACATT | 9.15 |
| ATATATATATAATGTTGTACATAAATATTATATTTA [XGTACX_site5225] | 8.98 |
| TTTTTATTTATTCTCTTTGTATTATAAAATAAAAGC [XGTACX_negctrl_site253] | 8.87 |
| GGAAAAATATAATATGCATGTTATTATTTTTTTATA [TGCATGCA_site836] | 9.06 |
| ATATATATTTTTAATTGTACAGAATTAAAAATATTG [XGTACX_site1967] | 8.98 |
| AAAAAAAAAAAAAGCTGTACAATTAAAGACAAACCT [XGTACX_site8610] | 9.52 |
| CTTTAACCATATATGTGTACGTATTTTATTCATATT [XGTACX_site6212] | 9.56 |
| AAGAAGTGGAAAATATACTCCACATATATATATGTG [CACACA_negctrl_site304] | 9.24 |
| AAAAAACAATTTGTGTGTACACATGATACGTTCGAT [XGTACX_site4112] | 9.79 |
| GCCCACACGAACCATGCATGCCACGATATAAACCAC [TGCATGCA_site322] | 9.38 |
| TTTTTTACAGAAAAATATTAAAATTATAAATGTGAA [GTGCAC_negctrl_site451] | 8.95 |
| TATGAAATTTTAATTACACACAGGAAAATAAAATGT [CACACA_site8430] | 9.57 |
| TAATATATATATATGGTGCATTTAATTTATATATAA | 9.11 |
| TTATAATATATATAAAAGAAAAAAAATTATAATATA [CACACA_negctrl_site90] | 9.15 |
| TTATTTTTCTTTATTGGTACACACGAAAAAAAAATT [XGTACX_site6482] | 9 |
| TGCAATATATCAAAGTGTACATGCAATAAAAAAAAA [XGTACX_site652] | 9.29 |
